# Source: the antibiotic and cytotoxicity screens of Wong et al. (2023)
# The other results are listed elsewhere or left out.
# Test system: HSkMC (human skeletal muscle cells)
# Assay: cytotoxicity call (relative viability < 0.9)
# Details: 10 µM
row,SMILES,cytotoxicity call
1,COc1ccc(CNC(=O)C[C@@H]2C[C@@H]3c4cc(NC(=O)NC5CCCC5)ccc4O[C@@H]3[C@@H](CO)O2)cc1,inactive
2,CC1=C(/C=C/C(C)=C/C=C/C(C)=C\C(=O)O)C(C)(C)CCC1,inactive
3,COc1ccc(NC(=O)Nc2ccc3c(c2)C(=O)N([C@H](C)CO)C[C@H](C)[C@@H](CN(C)C(=O)Nc2ccccc2)OCCCC[C@@H](C)O3)cc1,inactive
4,C[C@H]1CN([C@@H](C)CO)C(=O)Cc2cc(NS(C)(=O)=O)ccc2O[C@@H]1CN(C)C(=O)Nc1ccccc1,inactive
5,CN1CCN(C(=O)C[C@H]2CC[C@@H]3[C@@H](COc4ccc(NC(=O)C5CCCCC5)cc4C(=O)N3C)O2)CC1,inactive
6,C=C(C)CNc1nc(-c2ccccc2)c(-c2ccccc2)s1,inactive
7,CC(=O)OC1CC(OC(C)=O)C2(C)C(CC(O)C3(C)C2CCC2(C)C(c4ccoc4)OC(=O)C4OC423)C1(C)C (stereo unspecified),inactive
8,C[C@H]1CN([C@@H](C)CO)S(=O)(=O)c2ccc(C#Cc3ccccc3)cc2O[C@@H]1CN(C)S(C)(=O)=O,inactive
9,COc1ccc2c3c([nH]c2c1)[C@@H](CO)N(C[C@]13CCN(CC1)C(=O)c1cnccn1)C(=O)c1cnccn1,inactive
10,CCOc1cc2ncc(C#N)c(Nc3ccc(OCc4ccccn4)c(Cl)c3)c2cc1NC(=O)/C=C/CN(C)C,active
11,COc1ccc(C2Sc3ccccc3N(CCN(C)C)C(=O)C2OC(C)=O)cc1.Cl (stereo unspecified),inactive

# Test system: HepG2
# Assay: cytotoxicity call (relative viability < 0.9)
# Details: 10 µM
row,SMILES,cytotoxicity call
1,COc1ccc2c3c(n(c2c1)C)[C@H](CO)N(C[C@]13CCN(CC1)C(=O)c1ccncc1)C(=O)C1CCOCC1,inactive
2,COc1ccc(CN(C)C[C@H]2OCCCC[C@H](C)Oc3ccc(NC(=O)c4ccncc4)cc3C(=O)N([C@H](C)CO)C[C@@H]2C)cc1,inactive
3,C[C@@H]1CN([C@H](C)CO)C(=O)c2cc(NS(=O)(=O)c3cn(C)cn3)ccc2O[C@@H]1CN(C)S(=O)(=O)c1cn(C)cn1,inactive
4,CC(=O)OCC(=O)C1(O)CCC2C3CCC4=CC(=O)CCC4(C)C3C(O)CC21C (stereo unspecified),inactive
5,NCCNc1cccc2ccccc12,inactive
6,O=P(O)(O)C(Sc1ccc(Cl)cc1)P(=O)(O)O,inactive
7,NC1(CC(=O)O)CCN(Cc2ccccc2)CC1,inactive
8,C[C@H]1CN([C@@H](C)CO)C(=O)c2cc(NC(=O)Nc3ccc4c(c3)OCO4)ccc2O[C@@H]1CN(C)Cc1ccc(Cl)c(Cl)c1,inactive
9,Cc1noc(C)c1S(=O)(=O)Nc1ccc2c(c1)C(=O)N([C@H](C)CO)C[C@@H](C)[C@H](CN(C)Cc1ccc(C(F)(F)F)cc1)OCCCC[C@H](C)O2,active
10,C[C@@H]1CN([C@H](C)CO)C(=O)c2c(c3ccccc3n2C)-c2ccccc2CO[C@H]1CN(C)Cc1cccc2c1OCCCO2,inactive
11,C[C@H]1CCCCO[C@H](CN(C)Cc2ccc(C(F)(F)F)cc2)[C@@H](C)CN([C@@H](C)CO)C(=O)c2cc(NC(=O)CCCN(C)C)ccc2O1,active
12,C[C@]1(CC(=O)O)C(=O)N=C2C=CC=CN21,inactive
13,C[C@@H]1CCCCO[C@@H](CN(C)S(=O)(=O)c2ccc(Cl)cc2)[C@H](C)CN([C@@H](C)CO)C(=O)c2cc(NC(=O)c3ccncc3)ccc2O1,inactive
14,C[C@@H]1O[C@@H](O[C@@H]2[C@@H](O)[C@H](O)[C@@H](CO)O[C@H]2c2c(O)cc(O)c3c(=O)cc(-c4ccc(O)cc4)oc23)[C@H](O)[C@H](O)[C@H]1O,inactive
15,C/C=C/c1cnc2c(c1)C(=O)N([C@H](C)CO)C[C@H](C)[C@H](CN(C)S(=O)(=O)c1ccc(OC)cc1)O2,inactive
16,Cc1ccc(S(=O)(=O)Nc2ccc3c(c2)C(=O)N([C@H](C)CO)C[C@@H](C)[C@H](CN(C)Cc2ccncc2)OCCCC[C@@H](C)O3)cc1,inactive
17,O=C1O[C@@H](c2ccccc2)[C@@H](c2ccccc2)N2[C@@H](c3ccc(OCCO)cc3)[C@]3(C(=O)Nc4ccc(C#CC5=CCCCC5)cc43)[C@@H](C(=O)NC[C@H](O)c3ccccc3)[C@H]12,active
18,C[C@@H]1CN([C@@H](C)CO)C(=O)c2cccc(NC(=O)c3nc4ccccc4s3)c2O[C@H]1CN(C)S(=O)(=O)c1cn(C)cn1,inactive
19,Cn1cnc(S(=O)(=O)N2C[C@@H](O)COC[C@@H]3O[C@H](CC(=O)N4CCN(c5ccccc5)CC4)CC[C@H]32)c1,inactive
20,C[C@H]1CN([C@@H](C)CO)S(=O)(=O)c2ccc(Br)cc2O[C@H]1CN(C)C(=O)c1cccc(F)c1,inactive

row,SMILES,cytotoxicity call
1,C[C@@H]1CCCCO[C@H](CN(C)Cc2ccc(C(F)(F)F)cc2)[C@@H](C)CN([C@H](C)CO)C(=O)c2cc(NS(=O)(=O)c3ccc(Cl)cc3)ccc2O1,active
2,C[C@H](CO)N1C[C@H](C)[C@@H](CN(C)C(=O)Nc2cccc3ccccc23)Oc2c(NS(=O)(=O)c3ccc(F)cc3)cccc2C1=O,inactive
3,Cc1ccc(S(=O)(=O)N(C)C[C@@H]2Oc3ccc(NS(=O)(=O)c4ccccc4)cc3CC(=O)N([C@@H](C)CO)C[C@H]2C)cc1,inactive
4,O=C([O-])C1=C(CSc2nnnn2CS(=O)(=O)[O-])CSC2C(NC(=O)C(O)c3ccccc3)C(=O)N12.[Na+].[Na+] (stereo unspecified),inactive
5,NCC[C@H]1CC[C@H](NC(=O)C2CCCCC2)[C@H](CO)O1,inactive
6,COc1ccc(NC(=O)N(C)C[C@@H]2Oc3ccc(NS(=O)(=O)c4c(C)noc4C)cc3CC(=O)N([C@@H](C)CO)C[C@@H]2C)cc1,inactive
7,C[C@@H]1CCCCO[C@H](CN(C)Cc2ccccc2)[C@@H](C)CN([C@@H](C)CO)C(=O)c2cc(NC(=O)CCC(F)(F)F)ccc2O1,inactive
8,C[C@@H]1CN([C@@H](C)CO)C(=O)c2cc(NC(=O)CCCN(C)C)ccc2O[C@H]1CN(C)Cc1ccc2c(c1)OCO2,inactive
9,COc1cccc(-c2ccc3n(c2=O)C[C@@H]2[C@@H](CO)[C@H](C(=O)NCC4CC4)[C@H]3N2S(C)(=O)=O)c1,inactive
10,COc1ccc(CNC(=O)C[C@@H]2C[C@@H]3c4cc(NC(=O)NC5CCCC5)ccc4O[C@@H]3[C@@H](CO)O2)cc1,inactive
11,CC1=C(/C=C/C(C)=C/C=C/C(C)=C\C(=O)O)C(C)(C)CCC1,inactive
12,COc1ccc(NC(=O)Nc2ccc3c(c2)C(=O)N([C@H](C)CO)C[C@H](C)[C@@H](CN(C)C(=O)Nc2ccccc2)OCCCC[C@@H](C)O3)cc1,inactive
13,C[C@H]1CN([C@@H](C)CO)C(=O)Cc2cc(NS(C)(=O)=O)ccc2O[C@@H]1CN(C)C(=O)Nc1ccccc1,inactive
14,CN1CCN(C(=O)C[C@H]2CC[C@@H]3[C@@H](COc4ccc(NC(=O)C5CCCCC5)cc4C(=O)N3C)O2)CC1,inactive
15,C=C(C)CNc1nc(-c2ccccc2)c(-c2ccccc2)s1,inactive
16,CC(=O)OC1CC(OC(C)=O)C2(C)C(CC(O)C3(C)C2CCC2(C)C(c4ccoc4)OC(=O)C4OC423)C1(C)C (stereo unspecified),inactive
17,C[C@H]1CN([C@@H](C)CO)S(=O)(=O)c2ccc(C#Cc3ccccc3)cc2O[C@@H]1CN(C)S(C)(=O)=O,inactive
18,COc1ccc2c3c([nH]c2c1)[C@@H](CO)N(C[C@]13CCN(CC1)C(=O)c1cnccn1)C(=O)c1cnccn1,inactive
19,CCOc1cc2ncc(C#N)c(Nc3ccc(OCc4ccccn4)c(Cl)c3)c2cc1NC(=O)/C=C/CN(C)C,active
20,COc1ccc(C2Sc3ccccc3N(CCN(C)C)C(=O)C2OC(C)=O)cc1.Cl (stereo unspecified),inactive
